# Experimental data: the supplement of paper PMC8728848
# The list shows a part of the results.
# B1: AT1G15820(2) (Arabidopsis thaliana), Q9LMQ2 (protein)
# chain: MAMAVSGAVLSGLGSSFLTGGKRGATALASGVGTGAQRVGRKTLIVAAAAAQPKKSWIPAVKGGGNFLDPEWLDGSLPGDFGFDPLGLGKDPAFLKWYREAELIHGRWAMAAVLGIFVGQAWSGVAWFEAGAQPDAIAPFSFGSLLGTQLLLMGWVESKRWVDFFNPDSQSVEWATPWSKTAENFANYTGDQGYPGGRFFDPLGLAGKNRDGVYEPDFEKLERLKLAEIKHSRLAMVAMLIFYFEAGQGKTPLGALGL
# How the values were obtained:
# Assay in all cases: glycan array binding signal (z-score within array); higher = stronger binding
# Conditions in all cases: glycan notation: IUPAC condensed, linker removed
# [1] = target: Neu5Ac(a2-3)Gal(b1-4)GlcNAc(b1-2)[Neu5Ac(a2-3)Gal(b1-4)GlcNAc(b1-4)]Man(a1-3)[GlcNAc(b1-4)][Neu5Ac(a2-3)Gal(b1-4)GlcNAc(b1-2)[Neu5Ac(a2-3)Gal(b1-4)GlcNAc(b1-6)]Man(a1-6)]Man(b1-4)GlcNAc(b1-4)GlcNAc
# In short: (§1)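 Columns mapping to the same glycan were averaged after glycan names were converted to IUPAC-condensed notation. The data come from 3228 arrays in the Consortium for Functional Glycomics database, limited to those with an available protein sequence. Binding is reported as a within-array Z-score averaged across arrays of one protein sequence and across linkers.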
# [2] = target: Neu5Ac(a2-3)Gal(b1-4)GlcNAc(b1-2)[Neu5Ac(a2-3)Gal(b1-4)GlcNAc(b1-4)]Man(a1-3)[GlcNAc(b1-4)][Neu5Ac(a2-3)Gal(b1-4)GlcNAc(b1-4)Man(a1-6)]Man(b1-4)GlcNAc(b1-4)GlcNAc
# In short: as §1
# [3] = target: Neu5Ac(a2-3)Gal(b1-4)GlcNAc(b1-2)[Neu5Ac(a2-3)Gal(b1-4)GlcNAc(b1-6)]Man(a1-6)[Neu5Ac(a2-3)Gal(b1-4)GlcNAc(b1-2)Man(a1-3)]Man(b1-4)GlcNAc(b1-4)GlcNAc
# In short: as §1
# [4] = target: Neu5Ac(a2-3)Gal(b1-4)GlcNAc(b1-2)[Neu5Ac(a2-3)Gal(b1-4)GlcNAc(b1-6)]Man(a1-6)[Neu5Ac(a2-3)Gal(b1-4)GlcNAc(b1-2)Man(a1-3)][GlcNAc(b1-4)]Man(b1-4)GlcNAc(b1-4)GlcNAc
# In short: as §1
# [5] = target: Neu5Ac(a2-3)Gal(b1-4)GlcNAc(b1-3)Gal
# In short: as §1
# [6] = target: Neu5Ac(a2-3)Gal(b1-4)GlcNAc(b1-3)Gal(b1-3)GlcNAc
# In short: as §1
# [7] = target: Neu5Ac(a2-3)Gal(b1-4)GlcNAc(b1-3)Gal(b1-4)GlcNAc
# In short: as §1
# [8] = target: Neu5Ac(a2-3)Gal(b1-4)GlcNAc(b1-3)Gal(b1-4)GlcNAc(b1-2)Man(a1-3)[Neu5Ac(a2-3)Gal(b1-4)GlcNAc(b1-3)Gal(b1-4)GlcNAc(b1-2)Man(a1-6)]Man(b1-4)GlcNAc(b1-4)GlcNAc
# In short: as §1
# [9] = target: Neu5Ac(a2-3)Gal(b1-4)GlcNAc(b1-3)Gal(b1-4)GlcNAc(b1-3)Gal(b1-4)GlcNAc
# In short: as §1
# [10] = target: Neu5Ac(a2-3)Gal(b1-4)GlcNAc(b1-3)Gal(b1-4)GlcNAc(b1-3)Gal(b1-4)GlcNAc(b1-2)Man(a1-3)[Neu5Ac(a2-3)Gal(b1-4)GlcNAc(b1-3)Gal(b1-4)GlcNAc(b1-3)Gal(b1-4)GlcNAc(b1-2)Man(a1-6)]GalNAc
# In short: as §1
# [11] = target: Neu5Ac(a2-3)Gal(b1-4)GlcNAc(b1-3)Gal(b1-4)GlcNAc(b1-3)GalNAc
# In short: as §1
# [12] = target: Neu5Ac(a2-3)Gal(b1-4)GlcNAc(b1-3)Gal(b1-4)GlcNAc(b1-3)[Neu5Ac(a2-3)Gal(b1-4)GlcNAc(b1-3)Gal(b1-4)GlcNAc(b1-6)]GalNAc
# In short: as §1
# [13] = target: Neu5Ac(a2-3)Gal(b1-4)GlcNAc(b1-3)Gal(b1-4)GlcNAc(b1-6)[Gal(b1-3)]GalNAc
# In short: as §1
# [14] = target: Neu5Ac(a2-3)Gal(b1-4)GlcNAc(b1-3)Gal(b1-4)[Fuc(a1-3)]GlcNAc
# In short: as §1
# [15] = target: Neu5Ac(a2-3)Gal(b1-4)GlcNAc(b1-3)GalNAc
# In short: as §1
# [16] = target: Neu5Ac(a2-3)Gal(b1-4)GlcNAc(b1-3)[Neu5Ac(a2-3)Gal(b1-4)GlcNAc(b1-6)]GalNAc
# In short: as §1
# [17] = target: Neu5Ac(a2-3)Gal(b1-4)GlcNAc(b1-6)GalNAc
# In short: as §1
# [18] = target: Neu5Ac(a2-3)Gal(b1-4)GlcNAc(b1-6)[Gal(b1-3)]GalNAc
# In short: as §1
# [19] = target: Neu5Ac(a2-3)Gal(b1-4)GlcNAc(b1-6)[Neu5Ac(a2-3)Gal(b1-3)]GalNAc
# In short: as §1
# [20] = target: Neu5Ac(a2-3)Gal(b1-4)GlcNAc6S
# In short: as §1
# [21] = target: Neu5Ac(a2-3)Gal(b1-4)[Fuc(a1-3)]GlcNAc
# In short: as §1
# [22] = target: Neu5Ac(a2-3)Gal(b1-4)[Fuc(a1-3)]GlcNAc(b1-2)Man
# In short: as §1
# [23] = target: Neu5Ac(a2-3)Gal(b1-4)[Fuc(a1-3)]GlcNAc(b1-3)Gal
# In short: as §1
# [24] = target: Neu5Ac(a2-3)Gal(b1-4)[Fuc(a1-3)]GlcNAc(b1-3)Gal(b1-4)GlcNAc
# In short: as §1
# [25] = target: Neu5Ac(a2-3)Gal(b1-4)[Fuc(a1-3)]GlcNAc(b1-3)Gal(b1-4)[Fuc(a1-3)]GlcNAc(b1-3)Gal(b1-4)[Fuc(a1-3)]GlcNAc
# In short: as §1
# [26] = target: Neu5Ac(a2-3)Gal(b1-4)[Fuc(a1-3)]GlcNAc(b1-3)GalNAc
# In short: as §1
# [27] = target: Neu5Ac(a2-3)Gal(b1-4)[Fuc(a1-3)]GlcNAc(b1-6)[Gal(b1-3)]GalNAc
# In short: as §1
# [28] = target: Neu5Ac(a2-3)Gal(b1-4)[Fuc(a1-3)]GlcNAc(b1-6)[Neu5Ac(a2-3)Gal(b1-3)]GalNAc
# In short: as §1
# [29] = target: Neu5Ac(a2-3)Gal(b1-4)[Fuc(a1-3)]GlcNAc6S
# In short: as §1
# [30] = target: Neu5Ac(a2-3)Gal6S(b1-4)GlcNAc
# In short: as §1
# [31] = target: Neu5Ac(a2-3)Gal6S(b1-4)[Fuc(a1-3)]GlcNAc
# In short: as §1
# [32] = target: Neu5Ac(a2-3)GalNAc
# In short: as §1
# [33] = target: Neu5Ac(a2-3)GalNAc(b1-4)GlcNAc
# In short: as §1
# [34] = target: Neu5Ac(a2-3)[GalNAc(b1-4)]Gal(b1-4)Glc
# In short: as §1
# [35] = target: Neu5Ac(a2-3)[GalNAc(b1-4)]Gal(b1-4)GlcNAc
# In short: as §1
# [36] = target: Neu5Ac(a2-3)[GalNAc(b1-4)]Gal(b1-4)GlcNAc(b1-3)GalNAc
# In short: as §1
# [37] = target: Neu5Ac(a2-3)[Neu5Ac(a2-6)]GalNAc
# In short: as §1
binder,measurement,setting,value
B1,glycan array binding signal (z-score),[1],-0.252
same,glycan array binding signal (z-score),[2],-0.138
same,glycan array binding signal (z-score),[3],0.415
same,glycan array binding signal (z-score),[4],-0.594
same,glycan array binding signal (z-score),[5],-0.098
same,glycan array binding signal (z-score),[6],-0.133
same,glycan array binding signal (z-score),[7],-0.506
same,glycan array binding signal (z-score),[8],0.218
same,glycan array binding signal (z-score),[9],-0.091
same,glycan array binding signal (z-score),[10],0.49
same,glycan array binding signal (z-score),[11],-0.294
same,glycan array binding signal (z-score),[12],-0.444
same,glycan array binding signal (z-score),[13],-0.345
same,glycan array binding signal (z-score),[14],0.338
same,glycan array binding signal (z-score),[15],-0.47
same,glycan array binding signal (z-score),[16],0.172
same,glycan array binding signal (z-score),[17],-0.315
same,glycan array binding signal (z-score),[18],-0.407
same,glycan array binding signal (z-score),[19],-0.772
same,glycan array binding signal (z-score),[20],-0.028
same,glycan array binding signal (z-score),[21],-0.567
same,glycan array binding signal (z-score),[22],0.531
same,glycan array binding signal (z-score),[23],0.274
same,glycan array binding signal (z-score),[24],0.227
same,glycan array binding signal (z-score),[25],-0.228
same,glycan array binding signal (z-score),[26],1.02
same,glycan array binding signal (z-score),[27],-0.204
same,glycan array binding signal (z-score),[28],0.273
same,glycan array binding signal (z-score),[29],0.04
same,glycan array binding signal (z-score),[30],0.438
same,glycan array binding signal (z-score),[31],0.046
same,glycan array binding signal (z-score),[32],-0.502
same,glycan array binding signal (z-score),[33],-0.255
same,glycan array binding signal (z-score),[34],-0.033
same,glycan array binding signal (z-score),[35],-0.469
same,glycan array binding signal (z-score),[36],-0.111
same,glycan array binding signal (z-score),[37],-0.525
